Experimental data published in PubChem BioAssay AID1347165 (National Center for Advancing Translational Sciences (NCATS), 2019).
Values joined by “and” are separate entries in the source; they are usually repeats but may differ in a detail not shown here. Identical values can stand only once. The whole screen tested about 220,000 compounds, of which about 5,700 (2.6%) were called active. This list was built around the results that the source calls inconclusive (neither active nor inactive); the mix of calls is not that of the screen. Calls follow the shape of the dose curve; as a rule, active = well fitted inhibition curve with a large enough effect; inconclusive = small, poorly fitted or top-dose-only effect; inactive = no such curve, though single readings can be large or run the other way. A potency beside an inconclusive call is a rough fit, not a confirmed value.

Molecular target: Lysine-specific demethylase 5B (Homo sapiens) (UniProt Q9UGL1)
Sequence of UniProt Q9UGL1 (Q9UGL1 whole entry, looked up): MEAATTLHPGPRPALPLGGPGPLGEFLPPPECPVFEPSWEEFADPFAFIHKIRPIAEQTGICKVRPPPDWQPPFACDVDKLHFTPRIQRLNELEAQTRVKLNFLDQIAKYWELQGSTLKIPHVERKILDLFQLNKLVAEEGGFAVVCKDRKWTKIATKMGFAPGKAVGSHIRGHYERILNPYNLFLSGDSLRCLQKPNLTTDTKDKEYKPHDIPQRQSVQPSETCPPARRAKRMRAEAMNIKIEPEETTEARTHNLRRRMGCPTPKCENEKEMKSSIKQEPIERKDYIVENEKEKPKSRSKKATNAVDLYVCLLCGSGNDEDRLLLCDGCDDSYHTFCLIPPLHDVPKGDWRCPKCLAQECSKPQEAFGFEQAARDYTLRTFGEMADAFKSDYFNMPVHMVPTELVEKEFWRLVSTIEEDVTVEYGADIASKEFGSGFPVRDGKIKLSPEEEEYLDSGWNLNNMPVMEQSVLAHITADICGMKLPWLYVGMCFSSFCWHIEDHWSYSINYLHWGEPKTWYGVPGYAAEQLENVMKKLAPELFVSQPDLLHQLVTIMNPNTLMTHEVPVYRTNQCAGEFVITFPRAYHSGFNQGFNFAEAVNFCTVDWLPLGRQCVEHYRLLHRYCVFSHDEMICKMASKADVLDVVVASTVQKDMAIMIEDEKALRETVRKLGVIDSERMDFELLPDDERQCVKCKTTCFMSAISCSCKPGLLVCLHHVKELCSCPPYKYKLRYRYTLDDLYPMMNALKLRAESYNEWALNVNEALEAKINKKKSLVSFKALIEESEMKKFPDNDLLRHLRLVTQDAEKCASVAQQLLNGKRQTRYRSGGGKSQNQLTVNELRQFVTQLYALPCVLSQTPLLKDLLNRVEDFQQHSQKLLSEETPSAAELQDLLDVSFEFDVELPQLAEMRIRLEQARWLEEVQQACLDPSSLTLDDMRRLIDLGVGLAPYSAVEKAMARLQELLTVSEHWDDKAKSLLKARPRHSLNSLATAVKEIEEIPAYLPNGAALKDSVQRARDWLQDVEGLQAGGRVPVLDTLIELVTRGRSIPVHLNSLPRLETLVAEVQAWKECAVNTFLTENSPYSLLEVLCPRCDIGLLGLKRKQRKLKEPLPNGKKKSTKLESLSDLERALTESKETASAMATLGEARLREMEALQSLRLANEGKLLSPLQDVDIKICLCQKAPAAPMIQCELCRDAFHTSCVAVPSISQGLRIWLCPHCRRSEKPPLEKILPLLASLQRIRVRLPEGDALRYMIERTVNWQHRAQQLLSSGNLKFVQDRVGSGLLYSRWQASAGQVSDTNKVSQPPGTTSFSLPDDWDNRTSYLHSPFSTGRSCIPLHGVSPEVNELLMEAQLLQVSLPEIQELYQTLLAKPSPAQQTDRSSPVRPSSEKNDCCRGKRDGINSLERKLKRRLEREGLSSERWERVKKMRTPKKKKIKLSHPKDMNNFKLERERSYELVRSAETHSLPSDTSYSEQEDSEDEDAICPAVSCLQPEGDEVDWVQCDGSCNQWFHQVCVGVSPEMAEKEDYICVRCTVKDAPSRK
Test: Primary screen for KDM5B Histone Demethylases FDH-coupled qHTS; also: nearly all actives have a fitted effect of over 70% in size; as to activity change, negative = inhibition: 0% is about no effect
Conditions: FDH-coupled NADH fluorescence (FDH is formaldehyde dehydrogenase); activity change, negative = inhibition: at 57.7 µM (top of the series) unless noted
Outline: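 Inhibition is measured as reduced NADH fluorescence generation from FDH coupling to formaldehyde release. Truncated KDM5BΔAP at 200 nM final acts on H3K4me3 peptide (12.5 µM in substrate mix) in pH 7.5 HEPES buffer with Tween-20, 30 min, room temperature.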
Potency is read from the fitted curve at half-maximal effect; tags tell the direction and shape of the fitted curve.

Row | Compound | Potency | activity change, negative = inhibition
1 | CCN(CC)c1cc(CCC(=O)NCc2cc(F)ccc2F)ccn1 | inconclusive: 22.4 µM [inhibitor, partial curve, poor fit] | –
2 | CC(=O)c1sc(NC(=O)c2ccc(Cl)cc2)nc1C | inconclusive: 39.8 µM [inhibitor, partial curve, poor fit] | –
3 | CCc1noc(-c2cccn3c(CNC(=O)COc4ccccc4)nnc23)n1 | active: 31.6 µM | –
4 | CC/C=C(/C)C(=O)NCCCN1CCCC1 | – | inactive: 0.583%
5 | COc1ccc(-c2nnc(SCC(=O)Nc3cc(C)on3)n2C2CCCCC2)cc1 | – | inactive: -1.56%
6 | COc1ccc(-c2ccc(CNc3ccc4[nH]c(=O)[nH]c4c3)o2)cc1Cl | inconclusive: 31.6 µM [inhibitor, partial curve, poor fit] | –
7 | Nc1nccnc1C(=O)NCC(=O)NC1CC1 | inconclusive: 25.1 µM [inhibitor, partial curve, poor fit] | –
8 | COc1ccc(C(=O)/C=C/c2ccc(-c3ccccc3)cc2)cc1CSCC(=O)O | inconclusive: 28.2 µM [inhibitor, partial curve, poor fit] | –
9 | Cc1noc(C)c1S(=O)(=O)N1CCc2nn(C)c(=O)n2CC1 | – | inactive: 1.97%
10 | Cc1ccc(C)c(N(Cc2cc3ccc(C)cc3[nH]c2=O)C(=O)c2ccco2)c1 | inconclusive: 35.5 µM [inhibitor, partial curve, poor fit] | –
11 | O/N=C(\c1ccc(O)cc1O)c1ccccc1F | inconclusive: 25.1 µM [inhibitor, single point] | –
12 | Cc1cc(Cl)ccc1OCC(=O)N[C@@H]1CCOC[C@H]1OCC(=O)O | – | inactive: 22.2%
13 | c1ccc(-c2nc(-c3ccccn3)nc(-c3ccccn3)n2)nc1 | inconclusive: 39.8 µM [inhibitor, single point] | –
14 | CCn1ccc(C(=O)N2CCCC2c2nc(C3CCOCC3)no2)n1 (stereo not given) | inconclusive: 39.8 µM [inhibitor, partial curve, poor fit] | –
15 | COC(=O)C(=O)N1CCN2C(=O)N(Cc3ccc(C)cc3)C[C@H]2C1 | inconclusive: 11.2 µM [inhibitor, partial curve, poor fit] | –
16 | CNC(=O)CCc1c(-c2ccccc2)[nH]c2ccc(F)cc12 | inconclusive: 28.2 µM [inhibitor, partial curve, poor fit] | –
17 | COc1ccc(-c2cc(N3CCN(C(=O)c4cccc(F)c4)CC3)n[nH]2)cc1 | – | inactive: -24.1%
18 | CC(=O)N[C@H]1CCN(CCC(=O)Nc2ccc(F)c(Cl)c2)C1 | inconclusive: 3.55 µM [inhibitor, partial curve, poor fit] | –
19 | COc1ccccc1NC(=O)Cn1c(=O)n(Cc2ccco2)c(=O)c2cccnc21 | inconclusive: 7.94 µM [inhibitor, partial curve, poor fit] | –
20 | Cc1ccc(-c2ccc3nnc(CNC(=O)c4ccccc4C)n3n2)cc1C | active: 28.2 µM | –
21 | O=[N+]([O-])c1ccccc1/C=C/C=N/Nc1ccc(Cl)nn1 | inconclusive: 31.6 µM [inhibitor, single point] | –
22 | O=c1ccc(-c2cc(-c3cccc(N4CCOCC4)c3)cn3cncc23)c[nH]1 | inconclusive: 3.16 µM [inhibitor, partial curve, poor fit] | –

Row | Compound | Potency | activity change, negative = inhibition
23 | O=c1cc(-c2ccccc2)c2cc(Cl)c3c(c2o1)CN(Cc1ccccc1)CO3 | inconclusive: 22.4 µM [inhibitor, partial curve, poor fit] | –
24 | CCOC(=O)c1ccc(N2C(=O)c3n[nH]c(-c4cccs4)c3C2c2ccc(C(C)C)cc2)cc1 (stereo not given) | – | inconclusive: -35.2% [inhibitor]
25 | COc1ccc(C(=O)NC2CCN(c3cc(-c4ccc(Cl)cc4)[nH]n3)C2)cc1OC (stereo not given) | inconclusive: 12.6 µM [inhibitor, partial curve, poor fit] | –
26 | CN(C)C[C@@H]1CN(c2ncccn2)C[C@H]1NS(=O)(=O)c1ccc(C#N)cc1 | inconclusive: 14.1 µM [inhibitor, partial curve, poor fit] | –
27 | COc1cccc(Nc2cnc3ccc(-c4ccccc4OC)nn23)c1 | – | inactive: -21.7% [at 86.2 µM]
28 | COc1ccccc1-c1cc(C(F)(F)F)nc(S(=O)(=O)CCCC(=O)Nc2cc(OC)c(OC)c(OC)c2)n1 | inconclusive: 3.55 µM [inhibitor, full curve, poor fit] | –
29 | O=C(c1ccccc1)N1CCC(Oc2nccnc2N2CCOCC2)C1 (stereo not given) | – | inactive: -28.4%
30 | CC1=CC(c2ccc(Cl)cc2)n2nc(NC(=O)CCCC(=O)O)nc2N1 (stereo not given) | inconclusive: 31.6 µM [inhibitor, partial curve, poor fit] | –
31 | Cc1ccsc1C=Nc1ccc(Nc2ccccc2)cc1 | inconclusive: 12.6 µM [inhibitor, partial curve, poor fit] | –
32 | CN(Cc1ccncc1)Cc1ccccc1C(F)(F)F | inconclusive: 7.08 µM [inhibitor, full curve] | –
33 | CCCCOc1ccc(Nc2cc(Cl)ccc2C(=O)O)cn1 | inconclusive: 39.8 µM [inhibitor, single point] | –
34 | Cc1ccc(Cl)cc1NC(=O)COc1ncnc2ccc(Br)cc12 | – | inactive: -14%
35 | CC(=O)NC(=S)NNC(=O)c1ccc(-c2ccccc2)cc1 | inconclusive: 39.8 µM [inhibitor, single point] | –
36 | O=C(Nc1cccs1)N1CCNc2cnc(Nc3cccc(C(F)(F)F)c3)nc2C1 | inconclusive: 28.2 µM [inhibitor, partial curve, poor fit] | –
37 | COc1ccc(C(=O)NNC2=C(C(=O)C(F)(F)F)CCC2)cc1 | inconclusive: 22.4 µM [inhibitor, partial curve, poor fit] | –
38 | CN(C)c1ccc(CNC2(Cc3cc(COc4ccccc4)on3)COC2)cc1 | inconclusive: 31.6 µM [inhibitor, single point] | –
39 | NC(=O)C1(N2CCCCC2)CCN(C(=O)Nc2ccc(C(F)(F)F)cc2)CC1 | inconclusive: 0.891 µM [inhibitor, partial curve, poor fit] | –
40 | O=C([C@@H]1Cc2ccccc2CN1)N1CCN(Cc2ccccc2)CC1 | inconclusive: 39.8 µM [inhibitor, partial curve, poor fit] | –
41 | Fc1ccc(CN2CCn3c(nnc3C3CCCNC3)C2)cc1 (stereo not given) | inconclusive: 63.1 µM [inhibitor, partial curve, poor fit] and active: 28.2 µM and active: 25.1 µM | –
42 | COc1cccc(Nc2ccc3c(n2)C(C)(C(=O)NC2CCN(C)CC2)CN(C)C3)c1 (stereo not given) | – | inactive: -27.7% [at 86.2 µM]
43 | COc1cc(OC)c(NC(=O)Cn2c(N(C)Cc3ccccc3)nc(C)cc2=O)cc1Cl | inconclusive: 17.8 µM [inhibitor, partial curve, poor fit] | –
44 | CCOCCn1cc(C2CCN(S(=O)(=O)c3c(C)cc(C)cc3C)CC2)c2ccccc21 | inconclusive: 25.1 µM [inhibitor, single point] | –

Row | Compound | Potency | activity change, negative = inhibition
45 | COc1cc(OC)cc(-c2onc(C)c2C(=O)NCc2cccc(Cl)c2)c1 | – | inactive: -10.8%
46 | O=C(c1c(OCC2CC2)cc(=O)n2c1CCCCC2)N1CCN(c2ccccn2)CC1 | inconclusive: 25.1 µM [inhibitor, single point] | –
47 | Cn1ccc(Nc2nccc3c(=O)cc(-c4ccccn4)oc23)n1 | inconclusive: 28.2 µM [inhibitor, partial curve] | –
48 | CCS(=O)(=O)c1ncc(Cl)c(C(=O)N2CCN(c3cccc(Cl)c3)CC2)n1 | – | inactive: 7.33%
49 | Cn1c(CN2CCC3(CCNCC3)C2)nc2ccccc21 | inconclusive: 35.5 µM [inhibitor, partial curve, poor fit] | –
50 | CC1(C(=O)NCc2ccc(F)cc2)COCc2cnc(Nc3ccccc3)nc21 (stereo not given) | – | inactive: -21.9% [at 86.2 µM]
51 | Cn1cnc2c1c(=O)n(CCCn1nnc(-c3ccccc3)n1)c(=O)n2C | – | inactive: 12.4%
52 | O=C(CCC1CCCCC1)Nc1ccc(Nc2ccccc2)cc1 | – | inactive: 1.06%
53 | COc1ccc2c(c1)CNC2CS(=O)(=O)NCCc1ccccc1 (stereo not given) | inconclusive: 31.6 µM [inhibitor, partial curve, poor fit] | –
54 | N#Cc1ccc(-c2ccc(OCC(=O)c3ccc4c(c3)OCCCO4)cc2)cc1 | – | inactive: 20%
55 | COCCN1CCCCCC(O)c2cc(C(=O)NCCN3CCCC3)ccc21 (stereo not given) | inconclusive: 12.6 µM [inhibitor, partial curve, poor fit] | –
56 | Cc1noc(/C=C/N(C)C)c1S(=O)(=O)N1CCCC(C(=O)Nc2ccc(F)cc2F)C1 (stereo not given) | inconclusive: 14.1 µM [inhibitor, partial curve, poor fit] | –
57 | O=C1NCCCCCCN(Cc2ccncc2)[C@@H]2CN(C3CCC3)CC[C@H]12 | inconclusive: 17.8 µM [inhibitor, partial curve] | –
58 | Cc1ccn2c(=O)cc(CSc3ccc4ccccc4n3)nc2c1 | – | inactive: -19.9%
59 | CCOCCCNC(=O)c1cc2c(-c3ccc(OC)c(OC)c3)nn(C)c2s1 | inconclusive: 31.6 µM [inhibitor, partial curve, poor fit] | –
60 | Cc1nc2cc(NC(C)c3nc(C(C)C)no3)ccc2o1 (stereo not given) | inconclusive: 39.8 µM [inhibitor, single point] | –
61 | Cc1ccc(C(=O)CCc2nc(C3CC(=O)N(C4CCCCC4)C3)no2)cc1 (stereo not given) | – | inactive: -6.7%
62 | Cc1cc(Cl)ccc1NC(=O)c1cnc(-c2ccccc2)nc1-c1ccncc1 | – | inactive: -8.61%
63 | COCCN1CCc2nc(SCC(=O)Nc3ccc(Br)cc3)[nH]c(=O)c2C1 | inconclusive: 17.8 µM [inhibitor, single point] | –
64 | CSc1ccc(-c2ccc3c(c2)C(=O)N2CC[C@H](NC(=O)C4CCCC4)[C@H]2C(=O)N3)cc1 | active: 25.1 µM | –
65 | CCCc1nnc(C[C@@H]2C[C@@H](C(C)C)[C@H](CN3CCN(C(C)=O)CC3)C=C2C)o1 | – | inactive: -37.3% [at 86.2 µM]
